In article PMC3599065:
Residue numbers refer to the chain shown, from its start. These are yes or no findings as the source states them, for the method shown. Binding seen in cells or lysates may run through a third protein. Some entries that bind do so weakly or less than the wild type. Tags and fused reporters may be left off the sequences shown.

Legend:
Experiment in all cases: co-IP; lysates of differentiated Neuro2a cells expressing GFP-JIP1 constructs or GFP alone, immunoprecipitated with anti-GFP antibody, western blot of endogenous kinesin-1 (KHC), JNK and JIP3; 4 C, 150 mM NaCl, 20 mM Hepes pH 7.5, 0.5% Triton X-100
GFP-JIP1-dCT (mouse) = molecular target: T1, GFP-JIP1-dCT (mouse) (UniProt Q9WVI9)
T1 sequence: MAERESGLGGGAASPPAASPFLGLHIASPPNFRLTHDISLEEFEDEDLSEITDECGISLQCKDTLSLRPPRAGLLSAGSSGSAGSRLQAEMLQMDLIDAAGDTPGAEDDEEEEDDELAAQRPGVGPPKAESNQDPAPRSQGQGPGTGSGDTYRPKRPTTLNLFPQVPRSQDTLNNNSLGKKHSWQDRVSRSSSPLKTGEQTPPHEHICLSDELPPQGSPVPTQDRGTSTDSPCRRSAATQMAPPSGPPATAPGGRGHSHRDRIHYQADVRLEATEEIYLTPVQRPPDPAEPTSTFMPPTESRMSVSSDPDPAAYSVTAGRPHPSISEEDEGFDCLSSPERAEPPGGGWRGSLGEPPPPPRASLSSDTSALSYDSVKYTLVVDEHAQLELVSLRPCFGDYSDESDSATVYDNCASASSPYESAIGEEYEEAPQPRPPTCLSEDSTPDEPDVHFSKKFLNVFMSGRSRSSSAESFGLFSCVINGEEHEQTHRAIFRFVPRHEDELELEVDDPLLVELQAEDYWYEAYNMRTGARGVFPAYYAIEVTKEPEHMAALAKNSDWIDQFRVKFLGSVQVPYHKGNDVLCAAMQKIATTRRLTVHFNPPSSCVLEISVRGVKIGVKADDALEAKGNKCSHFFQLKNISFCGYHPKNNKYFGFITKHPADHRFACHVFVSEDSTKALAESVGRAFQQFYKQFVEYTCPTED

GFP-JIP1-WT (mouse) = molecular target: T2, GFP-JIP1-WT (mouse) (UniProt Q9WVI9)
T2 sequence: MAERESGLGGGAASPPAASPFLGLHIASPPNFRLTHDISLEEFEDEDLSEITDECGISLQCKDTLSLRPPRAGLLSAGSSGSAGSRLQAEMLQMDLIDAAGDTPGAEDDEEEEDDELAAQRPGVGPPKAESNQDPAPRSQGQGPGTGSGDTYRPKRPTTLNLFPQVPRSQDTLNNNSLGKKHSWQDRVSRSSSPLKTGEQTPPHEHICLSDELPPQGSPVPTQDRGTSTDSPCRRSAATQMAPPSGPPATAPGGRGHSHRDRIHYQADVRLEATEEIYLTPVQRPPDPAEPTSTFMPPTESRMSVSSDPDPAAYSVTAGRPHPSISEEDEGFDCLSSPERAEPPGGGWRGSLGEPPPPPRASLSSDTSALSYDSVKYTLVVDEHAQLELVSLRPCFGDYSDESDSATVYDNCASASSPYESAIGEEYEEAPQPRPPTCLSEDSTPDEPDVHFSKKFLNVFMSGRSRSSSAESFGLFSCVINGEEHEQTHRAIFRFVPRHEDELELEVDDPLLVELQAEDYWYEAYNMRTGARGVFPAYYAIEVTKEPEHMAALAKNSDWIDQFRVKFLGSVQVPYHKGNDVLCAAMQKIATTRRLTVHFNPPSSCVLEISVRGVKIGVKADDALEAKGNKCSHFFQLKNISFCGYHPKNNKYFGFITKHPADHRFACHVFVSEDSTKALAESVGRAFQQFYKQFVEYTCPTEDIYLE

GFP-JIP1-F642V (mouse) = molecular target: T3, GFP-JIP1-F642V (mouse) (UniProt Q9WVI9)
T3 sequence: T2 sequence with F642V

GFP-JIP1-dJBD (mouse) = molecular target: T4, GFP-JIP1-dJBD (mouse) (UniProt Q9WVI9)
T4 sequence: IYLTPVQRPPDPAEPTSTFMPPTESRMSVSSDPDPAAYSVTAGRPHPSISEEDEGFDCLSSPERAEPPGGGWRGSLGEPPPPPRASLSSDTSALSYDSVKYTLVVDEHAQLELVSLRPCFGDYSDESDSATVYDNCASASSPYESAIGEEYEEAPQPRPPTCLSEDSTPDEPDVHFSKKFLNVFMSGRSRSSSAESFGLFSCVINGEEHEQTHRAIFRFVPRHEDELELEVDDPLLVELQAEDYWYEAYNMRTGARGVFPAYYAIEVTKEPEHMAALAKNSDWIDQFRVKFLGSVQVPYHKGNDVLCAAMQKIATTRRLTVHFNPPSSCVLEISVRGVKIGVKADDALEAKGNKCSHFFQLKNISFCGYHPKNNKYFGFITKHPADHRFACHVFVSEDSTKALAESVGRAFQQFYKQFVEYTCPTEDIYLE

B1: JIP3 (endogenous, Neuro2a) (protein, UniProt Q9ESN9 1-1337)
chain: MMEIQMDEGGGVVVYQDDYCSGSVMSERVSGLAGSIYREFERLIHCYDEEVVKELMPLVVNVLENLDSVLSENQEHEVELELLREDNEQLLTQYEREKALRKQAEEKFIEFEDALEQEKKELQIQVEHYEFQTRQLELKAKNYADQISRLEERESEMKKEYNALHQRHTEMIQTYVEHIERSKMQQVGGSGQTESSLPGRSRKERPTSLNVFPLADGMVRAQMGGKLVPAGDHWHLSDLGQLQSSSSYQCPNDEMSESGQSSAAATPSTTGTKSNTPTSSVPSAAVTPLNESLQPLGDYVSVTKNNKQAREKRNSRNMEVQVTQEMRNVSIGMGSSDEWSDVQDIIDSTPELDVCPETRLERTGSSPTQGIVNKAFGINTDSLYHELSTAGSEVIGDVDEGADLLGEFSVRDDFFGMGKEVGNLLLENSQLLETKNALNVVKNDLIAKVDQLSGEQEVLKGELEAAKQAKVKLENRIKELEEELKRVKSEAVTARREPREEVEDVSSYLCTELDKIPMAQRRRFTRVEMARVLMERNQYKERLMELQEAVRWTEMIRASREHPSVQEKKKSTIWQFFSRLFSSSSSPPPAKRSYPSVNIHYKSPTAAGFSQRRSHALCQISAGSRPLEFFPDDDCTSSARREQKREQYRQVREHVRNDDGRLQACGWSLPAKYKQLSPNGGQEDTRMKNVPVPVYCRPLVEKDPSTKLWCAAGVNLSGWKPHEEDSSNGPKPVPGRDPLTCDREGEGEPKSTHPSPEKKKAKETPEADATSSRVWILTSTLTTSKVVIIDANQPGTIVDQFTVCNAHVLCISSIPAASDSDYPPGEMFLDSDVNPEDSGADGVLAGITLVGCATRCNVPRSNCSSRGDTPVLDKGQGDVATTANGKVNPSQSTEEATEATEVPDPGPSESEATTVRPGPLTEHVFTDPAPTPSSSTQPASENGSESNGTIVQPQVEPSGELSTTTSSAAPTMWLGAQNGWLYVHSAVANWKKCLHSIKLKDSVLSLVHVKGRVLVALADGTLAIFHRGEDGQWDLSNYHLMDLGHPHHSIRCMAVVNDRVWCGYKNKVHVIQPKTMQIEKSFDAHPRRESQVRQLAWIGDGVWVSIRLDSTLRLYHAHTHQHLQDVDIEPYVSKMLGTGKLGFSFVRITALLIAGNRLWVGTGNGVVISIPLTETVVLHRGQLLGLRANKTSPTSGEGTRPGGIIHVYGDDSSDKAASSFIPYCSMAQAQLCFHGHRDAVKFFVSVPGNVLATLNGSVLDSPSEGPGPAAPAADAEGQKLKNALVLSGGEGYIDFRIGDGEDDETEECAGDVNQTKPSLSKAERSHIIVWQVSYTPE
- binding (GFP-JIP1-dCT (mouse)): binds
- binding (GFP-JIP1-WT (mouse)): binds
- binding (GFP-JIP1-F642V (mouse)): no binding
- binding (GFP-JIP1-dJBD (mouse)): binds
